Experimental data as given in ChEMBL document CHEMBL4888484, “Replenishing the malaria drug discovery pipeline: Screening and hit evaluation of the MMV Hit Generation Library 1 (HGL1) against asexual blood stage Plasmodium falciparum ,using a nano luciferase reporter read-out” (2022).
The whole screen tested about 150,000 compounds, of which about 540 (0.36%) showed an effect of 50% or more. The list shows a part of the results.

system: Plasmodium falciparum; assay: Primary screen in NF54 nanoGlo assay, in single point, at 2uM, 72h; a lower Z score goes with more inhibition; type: functional, Erythrocyte; conditions: timepoint 72 hour

Compound | % Inhibition | Z score
CC(C)C1(CNC(=O)c2ccc3nc(C(F)(F)F)cn3c2)CC1 | -4% | 0.65
COc1ccc(CNC(=O)c2c[nH]c3ccc(F)cc3c2=O)cc1 | 0% | -0.05
Cc1nc(CCNc2ccnc(C(F)(F)F)n2)sc1C | -8% | 1.06
O=C(CN1CCCCC1)N1CCO[C@@H](CCCc2ccccc2)C1 | 2% | -0.35
Cc1c(Cl)ccc2c(C(=O)NC[C@H]3CCCO3)cc(-c3cccs3)nc12 | -1% | 0.13
COc1cccc(-c2nnc(NC(=O)Cc3cccs3)o2)c1 | -11% | 1.41
CC(C)(C)OC(=O)N1CCC(C(=O)NCC2CCCC2)(C(=O)NCC2CCCC2)C1 | -8% | 0.8
CC(=O)N1CCc2cc(CNC(=O)NCc3ccccc3)ccc21 | -4% | 0.69
O=C(Nc1ccc2c(c1)OCO2)c1cc[nH]n1 | 10% | -1.55
CC1CN(C(=O)c2coc(C(N)=O)c2)C1 | -5% | 0.74
O=C1OCCCN1c1ccc(-c2noc([C@@H]3CCCO3)n2)cc1 | 9% | -1.22
CCc1nnc(CN(C)C[C@H]2CCN(CC)C2)o1 | 3% | -0.56
CC(=O)c1ccc(OCc2ncnn2CC(C)C)c(Cl)c1 | -19% | 1.9
CCN1CCN(Cc2nc(-c3ccccc3)cs2)[C@H]2CS(=O)(=O)C[C@H]21 | -12% | 1.29
CN1CCN(c2nc3c(c(N4CCCC4)n2)CN(C(=O)c2ccc(C(F)(F)F)cc2)CC3)CC1 | -11% | 1.28
Cc1ncncc1C(=O)N1CCC[C@@]2(CCC(=O)N(CCc3ccccn3)C2)C1 | 2% | -0.21
O=C(CCNc1ccc(F)cn1)N1CCCCCC1 | 27% | -3.92
Cc1oc(C)c(C(=O)Nc2nc(-c3ccc4c(c3)OCCO4)cs2)c1Cl | -4% | 0.79
COc1cccc(N2CCN(C(=O)c3cccc(F)c3)[C@@H](C)C2=O)c1 | -26% | 2.28
COCc1nc(C(=O)OCC2CCC2)cs1 | 0% | -0.01
Nc1c(-c2ccccc2)nc2n1CCCC2 | -3% | 0.44

Compound | % Inhibition | Z score
Cc1ccc(OC2Cc3ccccc3C2N)nn1 (stereo unspecified) | -5% | 0.69
C[C@@H](COCC(F)(F)F)NC(=O)NCc1ncnn1C | -9% | 1.01
CCCC(=O)N1CCCC[C@H]1C(=O)N1CC(n2cc(-c3ccc(OCC)cc3)nn2)C1 | -6% | 1.12
CC1CC(C)CN(C(=O)CC(C)(C)CC(=O)Nc2ccc(F)cc2)C1 (stereo unspecified) | -7% | 1.06
C[C@H](NC(=O)c1cnc2ccccc2n1)C(=O)N1CCS(=O)(=O)CC1 | -17% | 1.8
CN1CCC(n2nccc2NC(=O)c2cc(-c3ccccc3)on2)CC1 | 3% | -0.65
CNC(=O)CCN(C)S(=O)(=O)c1cc(F)ccc1NCCO | -7% | 0.88
COc1ccc(OC)c(-c2nccn2-c2ccc3nc(C)[nH]c3c2)c1 | -5% | 0.58
Cc1cccc(CNS(=O)(=O)C2CON(C)C2c2ccc(OCc3ccccc3)cc2)c1 (stereo unspecified) | -8% | 1.48
Cc1ccc(-c2ccccc2CN2CCN3C(=O)CNC(=O)[C@@H]3C2)o1 | -7% | 1.3
CCN(CC)CCn1c2ccccc2n2cc(-c3ccc(F)cc3)nc12 | 6% | -0.5
COc1cccc(N2CCN(C(=O)C3(C)CC4CC4C3)CC2)c1 (stereo unspecified) | 27% | -3.69
CC(C)S(=O)(=O)N1CC[C@H](Cc2nnc(-c3ccccc3)o2)C1 | -5% | 0.67
O=C(NS(=O)(=O)C1CCC(C(F)(F)F)CC1)c1cncc(Cl)c1 (stereo unspecified) | 9% | -1.21
COCc1c(C(=O)N2CCN(c3cc(C)ccc3C)CC2)c(=O)cc(C)n1CCCc1ccccc1 | 4% | -0.43
O=C(Nc1cccc2ccccc12)N1CCC[C@H](C2OCCO2)C1 | 2% | -0.29
Cc1n[nH]c2c1CCCN2Cc1nc(C(C)(C)C)no1 | -17% | 2.25
N#Cc1ccc(O)c(-c2ccc(CN3CCOCC3)cc2)c1 | 28% | -3.13
CC(=O)Oc1ccc(N2C(=O)[C@@H]3[C@H](Cc4ccccc4)N[C@]4(C(=O)Nc5c4ccc(Cl)c5C)[C@@H]3C2=O)cc1 | -4% | 0.38
CC(C)c1cc(NC(=O)N(CC(F)F)C(C)C)no1 | -3% | 0.22
C[C@H](NCCCN1CCN(C)CC1)c1c(F)cccc1Cl | -15% | 2.06

Compound | % Inhibition | Z score
Cc1cc(C)n(NC(=O)CCn2nc(C(F)(F)F)c(Br)c2C2CC2)c(=O)c1 | 34% | -0.45
O=C([C@H]1CC(=O)N(C2CCOCC2)C1)N1CCCc2ccccc21 | -12% | 1.79
Cc1ccc(Cl)cc1NC(=O)c1nnn(CC(=O)NCCc2ccc(Cl)cc2)c1C | 30% | -3.39
Cc1ccc(C)c(NC(=O)N(C)CCc2noc(C(=O)NCc3ccc4c(c3)OCO4)n2)c1 | -9% | 0.79
CS(=O)(=O)N1C2CCC1CC(NC(=O)c1ccc3c(c1)OCO3)C2 (stereo unspecified) | -16% | 2
COC[C@](C)(CC(=O)O)NC(=O)c1scnc1C | -9% | 1.55
CCOC1CCCC1Nc1ccc(N(C)C)cc1C (stereo unspecified) | -5% | 1.05
Cc1ccc(S(=O)(=O)N2CCC[C@H](CNC(=O)c3cc(C)n(C)n3)C2)cc1C | -29% | 2.54
Fc1cnccc1CN1CC[C@H](n2cc(COCc3ccccc3)nn2)C1 | -13% | 1.87
CC(Nc1ncccn1)C1CN(Cc2ccccc2)CCO1 (stereo unspecified) | -4% | 0.32
COc1ccc(F)c(CN2CCC[C@@]3(CCN(C(=O)c4cc(C)ccc4O)C3)C2)c1 | -11% | 1.26
Cc1c(Br)c(C(=O)NC(C)(C)C(C)(C)CO)nn1C | 1% | -0.13
CC1(C)CN(C(=O)Cn2ccc3cnccc3c2=O)CCO1 | 6% | -0.8
NC(=O)[C@@H]1C[C@@H](F)CN1C(=O)Cc1ccc(F)cc1F | -9% | 1.28
CN1CCO[C@H](c2noc(Cc3ccc(F)cc3)n2)C1 | -6% | 0.91
c1cnc(-n2cnc3ccccc32)c(CNCc2ccc3c(c2)CCO3)c1 | 4% | -0.86
C1CCN(c2nc(N3CCCCC3)nc(N3CCCCC3)n2)CC1 | -4% | 0.57
COc1ccc(-c2noc(N(C)CC(=O)Nc3ccc(Oc4ccccc4)cc3)n2)cc1 | -5% | 0.91
Cc1cc(F)ccc1S(=O)(=O)N1CCC[C@H](Cc2nc(-c3ccccc3F)no2)C1 | -10% | 1.96
CN(CCc1ccccc1)C[C@@H]1OC[C@H](NC(=O)Nc2cccnc2)[C@H]1O | 16% | -1.86
CCNC(=O)c1ccc(N(C)CCC(F)(F)F)nn1 | -11% | 1.72

Compound | % Inhibition | Z score
Cc1ccccc1NS(=O)(=O)c1ccc2c(c1)CC(C)(C)OC2 | -1% | 0.26
CNc1ccccc1C(=O)N1CCO[C@H]2CCC[C@H]21 | 8% | -1.56
Cn1cc2ncn([C@H](c3nccn3C)C3CC3)c(=O)c2n1 | 3% | -0.65
COC[C@H]1CCCN1S(=O)(=O)NC(C)(C)CN1CCOCC1 | -12% | 2.34
COCC(=O)N[C@@H]1CC[C@@]2(OC)CCN(C(=O)Cc3ccsc3)[C@H]2C1 | -10% | 1.14
O=C(N[C@H]1CCNC[C@@H]1O)c1cccc(-c2ccc3c(c2)OC(F)(F)O3)c1 | -16% | 1.84
COc1cccc2c1CCN(C(=O)Cn1cnc3c1CCNC31CCOCC1)C2 | -2% | 0.3
O=S(=O)(Cc1ccccc1)Nc1ccc(C#Cc2ccccc2)cc1 | 7% | -0.86
Cc1ccc(F)c(-c2cc(NC(=O)[C@@H]3COCCN3C)[nH]n2)c1 | -11% | 1.8
CCN(CC)C(=O)c1cnc2nc(C)ccc2c1Nc1cccc(C(F)(F)F)c1 | -6% | 0.97
Cc1cc(NC(=O)c2c(C)sc3ncnc(N4CCCC4)c23)ccc1F | 33% | -0.61
Cc1ncsc1CCC(=O)Nc1ccccc1N1C(=O)N[C@@H](C)C1=O | -7% | 1.03
COc1ccc(N2CCN(C(=O)c3csc(C(C)(C)C)n3)CC2)nc1 | -16% | 1.58
Cc1cc(NC(=O)N2CCC=C(F)C2)ccc1-n1nnnc1C(C)C | -11% | 1.19
CC(C)c1ccc(CN2CCC[C@@]3(CCN(c4ncccn4)C3)C2=O)cc1 | -11% | 1.4
CN(C)CCCN(C(=O)c1ccc(S(=O)(=O)N2CCCCCC2)cc1)c1nc2cc3c(cc2s1)OCCO3 | 17% | -2.1
CC(C)N(C)Cc1nc(-c2cc3c([nH]c2=O)[C@@H](C)CCC3)no1 | -14% | 2.58
COC(=O)C[C@H]1CCCN1C(=O)NCCc1c[nH]c2ccc(F)cc12 | 1% | -0.16
CC(C)c1ncc(C(=O)Nc2nn(C)cc2C#N)s1 | -9% | 0.82
CCCN(Cc1cc(=O)[nH]c2c(C)cc(C)cc12)C(=O)Nc1ccc2c(c1)OCO2 | 29% | -3.94
